According to PubChem BioAssay AID504339 (National Center for Advancing Translational Sciences (NCATS), 2011):
The campaign covered roughly 390,000 compounds. About 17,000 (4.4%) were called active. Inconclusive means that the source gave no clear call. Such entries were picked first, then a sample of the others. The call rests on the fitted dose curve; in most records, active means well fitted inhibition curve with a large enough effect; inconclusive means small, poorly fitted or top-dose-only effect; inactive means no such curve, though single readings can be large or run the other way. A potency beside an inconclusive call is a rough fit, not a confirmed value.

What follows are compounds tested against Lysine-specific demethylase 4A (Homo sapiens) (UniProt O75164) (assay: qHTS Assay for Inhibitors of JMJD2A-Tudor Domain). Conditions: AlphaScreen JMJD2A-Tudor / H3K4me3 peptide binding; activity change, negative = inhibition: at 114 µM (top of the series).
Chain of UniProt O75164 (O75164 whole entry, looked up, the tested form may be a part): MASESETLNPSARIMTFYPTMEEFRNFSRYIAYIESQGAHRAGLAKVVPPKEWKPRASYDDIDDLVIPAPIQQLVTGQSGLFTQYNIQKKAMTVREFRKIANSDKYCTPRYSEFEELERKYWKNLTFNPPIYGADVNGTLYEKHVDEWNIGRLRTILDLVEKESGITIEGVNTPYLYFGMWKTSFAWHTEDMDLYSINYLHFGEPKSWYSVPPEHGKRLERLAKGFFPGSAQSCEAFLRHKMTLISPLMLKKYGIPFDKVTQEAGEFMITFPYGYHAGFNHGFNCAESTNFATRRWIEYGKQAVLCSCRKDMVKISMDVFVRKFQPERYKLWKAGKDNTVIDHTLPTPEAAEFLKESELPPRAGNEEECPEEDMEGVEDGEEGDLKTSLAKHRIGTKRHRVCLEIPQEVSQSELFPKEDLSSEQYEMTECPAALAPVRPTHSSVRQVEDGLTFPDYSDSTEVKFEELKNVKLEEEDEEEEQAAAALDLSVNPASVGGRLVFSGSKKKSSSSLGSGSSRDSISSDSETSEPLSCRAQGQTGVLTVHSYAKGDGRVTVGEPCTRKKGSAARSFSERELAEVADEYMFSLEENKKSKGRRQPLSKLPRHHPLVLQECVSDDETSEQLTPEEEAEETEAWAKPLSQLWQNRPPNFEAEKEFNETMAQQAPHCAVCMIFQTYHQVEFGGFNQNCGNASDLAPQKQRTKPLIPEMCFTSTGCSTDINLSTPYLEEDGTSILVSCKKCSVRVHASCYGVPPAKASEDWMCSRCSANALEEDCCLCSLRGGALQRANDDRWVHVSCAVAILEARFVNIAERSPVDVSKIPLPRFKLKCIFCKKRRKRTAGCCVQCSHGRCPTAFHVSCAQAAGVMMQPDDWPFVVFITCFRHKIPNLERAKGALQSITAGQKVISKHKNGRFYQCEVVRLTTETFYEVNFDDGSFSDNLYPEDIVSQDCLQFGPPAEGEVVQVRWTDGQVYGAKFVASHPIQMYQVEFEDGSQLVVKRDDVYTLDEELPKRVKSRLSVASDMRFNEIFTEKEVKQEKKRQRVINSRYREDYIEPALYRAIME
Further: nearly all actives have a fitted effect of over 50% in size.
On the % scale 0 is the no-effect control and ±100 the full control effect; potency means the concentration at half of the fitted maximal effect; tags describe the fitted curve by direction and shape.

| SMILES | Potency | activity change, negative = inhibition |
| --- | --- | --- |
| COC(=O)c1c(N2C(=O)[C@H]3[C@@H](C2=O)[C@]2(C(=O)Nc4c(C)cccc42)N2CCC[C@@H]32)sc(C)c1C | inconclusive: 56.2 µM [inhibitor, partial curve, poor fit] | – |
| O=C(Nc1ccccc1C(=O)Nc1ccccc1)c1ccccc1Br | – | inactive: -3.25% |
| COc1cccc(C(=O)CSc2nnc(CNS(=O)(=O)c3ccc(C)cc3)n2C)c1 | active: 20 µM | – |
| O=C(CCc1nc(CN2CCN(S(=O)(=O)c3ccc(Cl)cc3)CC2)no1)N1CCCCC1 | – | inactive: -17.9% |
| COc1cccc(/C=C2\SC(N3CCCC(C)C3)=NC2=O)c1OC (stereo unspecified) | – | inactive: -7.36% |
| CN(C(=O)CSc1nnc(Cc2cccc3ccccc23)n1N)C1CCS(=O)(=O)C1 (stereo unspecified) | inconclusive: 56.2 µM [inhibitor, partial curve] | – |
| CCc1nc2oc3cc(OC)ccc3c(=O)c2c(=O)n1Cc1ccco1 | inconclusive: 50.1 µM [inhibitor, partial curve] | – |
| COc1ccc(NC(=S)NNC(=S)Nc2cccc(C(F)(F)F)c2)cc1 | inconclusive: 50.1 µM [inhibitor, partial curve] | – |
| CCN(C(=O)C1CCCN(S(=O)(=O)c2c(C)noc2/C=C/N(C)C)C1)c1cccc(C)c1 (stereo unspecified) | inconclusive: 44.7 µM [inhibitor, partial curve] | – |
| COc1ccccc1CNC(=O)c1cc(S(=O)(=O)N2CCN(c3ccccc3)CC2)ccc1Cl | – | inactive: -20.3% |
| COc1ccc(F)cc1S(=O)(=O)Nc1ccc2c(c1)OCCO2 | – | inactive: -2.11% |
| Cc1ccc2nc(/C(C#N)=C\c3ccc(N4CCCCC4)c([N+](=O)[O-])c3)[nH]c2c1 | active: 5.62 µM | – |
| Nc1ccc2c(c1)-c1ccccc1S(=O)(=O)N2 | inconclusive: 50.1 µM [inhibitor, partial curve] | – |
| O=C(COc1ccc(Cl)cc1)Nc1ccccc1Cl | – | inactive: 17.5% |
| CNC(=S)N/N=C/c1ccc(-c2ccc(Cl)c([N+](=O)[O-])c2)o1 | – | inactive: -25.4% |
| Cc1cc(O)c(C(C)C)cc1N=C1CSC(=O)N1 | – | inactive: -25.7% |
| O=S(=O)(c1ccccc1)N1CCN(Cc2cccc(Cl)c2)CC1 | active: 8.91 µM | – |
| O=C(CN1C(=O)COc2ccccc21)Nc1ccc(F)cc1 | active: 50.1 µM | – |
| O=[N+]([O-])c1cc(Cl)ccc1-c1nc(-c2ccccc2)no1 | inconclusive: 44.7 µM [inhibitor, single point] | – |
| O=C(c1cc(-c2ccc(Br)cc2)nc2ccccc12)N1CCN(c2ccccc2O)CC1 | inconclusive: 17.8 µM [inhibitor, full curve] | – |
| O=C(NC(Cc1ccccc1)C(=O)O)/C(=C\c1ccc(F)cc1)NC(=O)c1ccco1 (stereo unspecified) | inconclusive: 89.1 µM [inhibitor, single point] | – |
